Measured values taken from PubChem BioAssay AID463173 (ICCB-Longwood Screening Facility, Harvard Medical School, 2010).
About 4,300 (8.3%) of roughly 52,000 compounds were called active. No stated cut-off is given here; in the data, active means survival mostly below about 52% (no sharp cut-off); inactive means mostly above about 56%. The list shows a part of the results. A structure can be active in one record and inactive in another.

The molecules below were run on DeltatarO mutant (assay: growth inhibition of S. aureus wild type versus tarO mutant, primary screen, teichoic acid synthesis inhibitors, RN4220, OD600 (AID 463173)). Details: OD600, 18 h, stronger effect = lower value, screened at 18.75 µg/mL (by protocol).
For `CCOC(=O)c1cc(-c2ccccc2)n(CCC(=O)NCCc2ccccc2)c1C`, the survival was active: 0%.
In the case of `CCN(C(=O)CSc1nc2ccccc2n1CC(=O)N(C)C1CCCCC1)c1ccccc1`, the survival is reported as inactive: 118%.
In the case of `O=C1CC(C(=O)NCCc2ccccc2)C2(CCCCC2)O1` (centres undefined), the survival is reported as inactive: 84%.
For `CCc1ccc(C(=O)c2cn(CC(=O)Nc3cc(OC)ccc3OC)c3ccc(Cl)cc3c2=O)cc1`, the survival was inactive: 73%.
`COc1ccc(CNC(=O)c2cnc(N3CCCC3)nc2C)c(OC)c1` was tested, and the survival was inactive: 75%.
With `COc1ccccc1CNC(=O)C(NS(=O)(=O)c1ccc2c(c1)CCN2C(C)=O)C(C)C` (centres undefined) the survival was inactive: 79%.
In the case of `CCOC(=O)c1cnc2ccc(OC)cc2c1Nc1ccc(OCc2ccccc2Cl)cc1`, the survival is reported as active: 8%.
In the case of `Cc1ccc(NC(=O)CCC(=O)N2Cc3ccccc3Oc3ncccc32)cc1Cl`, the survival is reported as inactive: 83%.
With `COc1ccc(-c2nc3sc(CCNC(=O)Cc4ccccc4)c(C)n3n2)cc1` the survival was inactive: 102%.
`N#Cc1cn(CC(=O)Nc2ccccc2C(F)(F)F)c2ccccc12` was tested, and the survival was inactive: 70%.
For `COc1ccc(C)cc1NC(=O)c1nnn(Cc2cccc(Br)c2)c1N`, the survival was inactive: 87%.
In the case of `COc1ccc(C2=NS(=O)(=O)N(C)C(C(=O)NC(C)c3ccccc3)=C2)cc1` (centres undefined), the survival is reported as inactive: 64%.
`CCC(=O)N1CCc2cc(S(=O)(=O)NCc3ccc(C)cc3)ccc21` was tested, and the survival was inactive: 95%.
In the case of `COc1ccccc1NC(=O)C1=C(C)Nc2nc3ccccc3n2C1c1ccccc1Cl` (centres undefined), the survival is reported as inactive: 62%.
`CN(C)c1ncc(C(=O)NCc2ccc(Cl)cc2)cn1` was tested, and the survival was inactive: 80%.
In the case of `Cc1nc(N)nc2c1C(=O)CC(c1ccccc1)C2` (centres undefined), the survival is reported as inactive: 99%.
`CCOc1ccc(NC(=O)c2ccc(F)c(S(=O)(=O)N(Cc3ccc(C(=O)OC)cc3)Cc3ccc(OC)c(OC)c3)c2)cc1` was tested, and the survival was active: 47%.
In the case of `O=C(Cn1cc(C(=O)c2ccco2)c2ccccc21)Nc1ccccc1`, the survival is reported as active: 41%.
In the case of `CCOc1ccc(N2CC(C)Cn3c2nc2c3c(=O)n(Cc3c(F)cccc3Cl)c(=O)n2C)cc1` (centres undefined), the survival is reported as inactive: 45%.
With `NC(=O)COc1cccc(-n2cnnn2)c1` the survival was inactive: 63%.
With `O=C(c1ccco1)N1CCN(C2CC(=O)N(c3ccc(F)c(Cl)c3)C2=O)CC1` (centres undefined) the survival was inactive: 82%.
In the case of `CCOC(=O)N1CCN(Cc2nc3cc(NC(=O)c4ccccc4Cl)ccc3n2C(C)C)CC1`, the survival is reported as inactive: 70%.
For `COc1ccccc1NC(=O)CSc1cn(CC(=O)N2CCCC2)c2ccccc12`, the survival was inactive: 88%.
For `CC(=O)c1cccc(NC(=O)CCc2c(C)nc3nc(CN)nn3c2C)c1`, the survival was inactive: 92%.
`CC(=O)N1CCc2c(sc3c2c(=O)n(-c2ccccc2Cl)c(=O)n3Cc2cccc(C)c2)C1` was tested, and the survival was inactive: 74%.
In the case of `CCC1CCCCN1C(=O)CSc1nnc(-c2ccc(OC)c(OC)c2)o1` (centres undefined), the survival is reported as inactive: 71%.
In the case of `Cc1ccc2nc(-c3cccs3)c(Nc3ccc4c(c3)OCCO4)n2c1`, the survival is reported as inactive: 99%.
With `N#Cc1ccc(NC(=O)CNCC2CCCCC2)cc1` the survival was inactive: 100%.
In the case of `CCOC(=O)c1ccc(NC(=O)N2CC3CCCN3c3ccccc32)cc1` (centres undefined), the survival is reported as inactive: 87%.
In the case of `COc1cccc(NC(=O)c2ccc(CN3CCN(c4ccccc4)CC3)cc2)c1`, the survival is reported as inactive: 92%.
`Cc1ccc(S(=O)(=O)c2cnc(SCC(=O)Nc3ccc4c(c3)OCCO4)[nH]c2=O)cc1C` was tested, and the survival was inactive: 74%.
For `COC(=O)CN1C(C(=O)c2ccccc2)=C(OC(=O)c2ccc(F)cc2)c2ccccc2S1(=O)=O`, the survival was inactive: 56%.
With `COc1cccc(-n2c(C)nc3cc(C(=O)O)ccc32)c1` the survival was inactive: 177%.
In the case of `COc1cc2nc(NC(=O)c3ccc(S(=O)(=O)N4CCc5ccccc54)cc3)sc2cc1OC`, the survival is reported as inactive: 64%.
In the case of `CCN(CCCNC(=O)c1cc2c(=O)n(CC)c3ccccc3c2s1)Cc1ccccc1`, the survival is reported as inactive: 101%.
In the case of `CC1CCCCN1C(=O)c1ccc2c(c1)N(Cc1ccc(F)cc1)C(=O)c1ccccc1S2(=O)=O` (centres undefined), the survival is reported as inactive: 69%.
With `COc1cccc(-c2nc3c(C#N)c[nH]n3c2NC2CCCC2)c1OC` the survival was active: 64%.
In the case of `O=C(CSc1ncc(-c2ccccc2)[nH]1)Nc1cccc(Br)c1`, the survival is reported as active: 9%.
For `Cc1cc(OCC(=O)N2CCC(c3nc4ccccc4s3)CC2)ccc1Cl`, the survival was active: 23%.
For `Cc1ccc(-c2nnn3c2nc(NC2CCC(C)CC2)c2ccccc23)cc1` (centres undefined), the survival was active: -4%.
`CCN(Cc1ccccc1)C(c1cccnc1)c1nnnn1Cc1ccccc1` (centres undefined) was tested, and the survival was inactive: 86%.
`Cc1cc2n(n1)CCCN2C(=O)Nc1ccc(F)c(Cl)c1` was tested, and the survival was inactive: 79%.
`CCN(CC)C(=O)c1cnn(-c2ccc(F)cc2)c1-n1cccc1` was tested, and the survival was inactive: 73%.
In the case of `COc1ccc(N2CCN(C(=O)c3ccc4c(=O)n(CCc5ccc(OC)c(OC)c5)c(=O)[nH]c4c3)CC2)cc1`, the survival is reported as inactive: 104%.
